Assay [1] has as its target T1, human LAG-3 on the cell surface (human, UniProt P18627 23-525).
T1 sequence (looked up): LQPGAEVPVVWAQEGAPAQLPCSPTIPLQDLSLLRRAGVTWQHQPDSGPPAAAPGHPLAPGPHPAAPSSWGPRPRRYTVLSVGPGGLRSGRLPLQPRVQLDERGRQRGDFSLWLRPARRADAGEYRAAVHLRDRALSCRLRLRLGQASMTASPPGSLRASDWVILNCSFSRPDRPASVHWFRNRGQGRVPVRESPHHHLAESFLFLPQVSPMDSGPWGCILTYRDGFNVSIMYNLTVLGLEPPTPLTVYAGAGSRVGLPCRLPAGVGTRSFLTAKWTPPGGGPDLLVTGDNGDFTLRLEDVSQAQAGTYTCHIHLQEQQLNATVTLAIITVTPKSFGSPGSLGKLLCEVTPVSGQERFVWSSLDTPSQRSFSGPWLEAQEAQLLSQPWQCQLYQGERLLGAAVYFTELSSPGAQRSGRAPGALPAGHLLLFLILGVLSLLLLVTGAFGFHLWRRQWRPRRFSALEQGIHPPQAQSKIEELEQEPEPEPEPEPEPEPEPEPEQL
The assay can be described thus: cell-based or functional assay.

The target of assay [2] is T2, recombinant mouse LAG-3-6*His tag fusion protein (mouse, UniProt Q61790 23-442).
T2 construct: made in Expi293 cells from the mouse LAG-3 cDNA; also called mouse LAG-3 antigen
T2 sequence: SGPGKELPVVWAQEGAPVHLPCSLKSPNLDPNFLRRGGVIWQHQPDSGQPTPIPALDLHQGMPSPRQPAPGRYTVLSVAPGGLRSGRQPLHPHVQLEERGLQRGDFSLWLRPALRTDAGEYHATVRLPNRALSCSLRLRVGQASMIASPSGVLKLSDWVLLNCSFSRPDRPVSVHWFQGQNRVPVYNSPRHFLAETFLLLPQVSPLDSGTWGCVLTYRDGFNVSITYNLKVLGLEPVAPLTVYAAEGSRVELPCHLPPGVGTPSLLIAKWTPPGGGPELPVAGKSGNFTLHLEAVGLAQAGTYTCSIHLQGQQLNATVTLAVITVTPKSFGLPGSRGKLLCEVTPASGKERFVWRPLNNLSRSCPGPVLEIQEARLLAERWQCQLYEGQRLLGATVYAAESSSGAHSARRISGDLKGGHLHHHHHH
As to the kind of experiment: ELISA, antibody coated at 1 µg/ml, mouse LAG-3-6*His titrated, anti-His HRP. Background: An ELISA detects its analyte on a solid surface through an enzyme-linked reagent.

In assay [3] the target is T1, human LAG-3 on the cell surface. As to the kind of experiment: flow cytometry on cells expressing the human LAG-3, PE anti-human IgG; N = 4. (A flow cytometer gives signals particle by particle.)
Assay [4] has as its target T3, human LAG-3-6*His tag recombinant fusion protein (human, UniProt P18627 23-450, biotin-labelled in panning and in Example 9).
T3 construct: Bought protein; also called hLAG-3-6*his tag recombinant protein; human LAG-3-his tag recombinant fusion protein
T3 sequence: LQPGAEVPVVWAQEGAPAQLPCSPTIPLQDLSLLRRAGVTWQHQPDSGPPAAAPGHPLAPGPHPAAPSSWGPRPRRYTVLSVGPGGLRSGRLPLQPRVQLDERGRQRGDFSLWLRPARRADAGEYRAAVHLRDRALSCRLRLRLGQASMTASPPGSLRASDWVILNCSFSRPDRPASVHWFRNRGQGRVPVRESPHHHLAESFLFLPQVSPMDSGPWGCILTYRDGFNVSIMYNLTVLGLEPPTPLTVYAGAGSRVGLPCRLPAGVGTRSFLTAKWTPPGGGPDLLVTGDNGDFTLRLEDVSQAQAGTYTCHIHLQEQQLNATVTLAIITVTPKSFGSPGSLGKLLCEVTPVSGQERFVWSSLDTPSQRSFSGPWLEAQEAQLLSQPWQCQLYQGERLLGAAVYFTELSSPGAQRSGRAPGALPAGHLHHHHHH
As to the kind of experiment: SPR BIAcore T200, antibody on CM5 chip, human LAG-3-6*His 0.352 to 45 nM as analyte.

Assay [5] addresses T1, human LAG-3 on the cell surface. As to the kind of experiment: flow cytometry on activated human CD4+ T cells expressing LAG-3, PE anti-human antibody.
Assay [6] has as its target T4, human LAG-3-mFc recombinant fusion protein (human).
T4 construct: also called hLAG-3-mFc
T4 chain: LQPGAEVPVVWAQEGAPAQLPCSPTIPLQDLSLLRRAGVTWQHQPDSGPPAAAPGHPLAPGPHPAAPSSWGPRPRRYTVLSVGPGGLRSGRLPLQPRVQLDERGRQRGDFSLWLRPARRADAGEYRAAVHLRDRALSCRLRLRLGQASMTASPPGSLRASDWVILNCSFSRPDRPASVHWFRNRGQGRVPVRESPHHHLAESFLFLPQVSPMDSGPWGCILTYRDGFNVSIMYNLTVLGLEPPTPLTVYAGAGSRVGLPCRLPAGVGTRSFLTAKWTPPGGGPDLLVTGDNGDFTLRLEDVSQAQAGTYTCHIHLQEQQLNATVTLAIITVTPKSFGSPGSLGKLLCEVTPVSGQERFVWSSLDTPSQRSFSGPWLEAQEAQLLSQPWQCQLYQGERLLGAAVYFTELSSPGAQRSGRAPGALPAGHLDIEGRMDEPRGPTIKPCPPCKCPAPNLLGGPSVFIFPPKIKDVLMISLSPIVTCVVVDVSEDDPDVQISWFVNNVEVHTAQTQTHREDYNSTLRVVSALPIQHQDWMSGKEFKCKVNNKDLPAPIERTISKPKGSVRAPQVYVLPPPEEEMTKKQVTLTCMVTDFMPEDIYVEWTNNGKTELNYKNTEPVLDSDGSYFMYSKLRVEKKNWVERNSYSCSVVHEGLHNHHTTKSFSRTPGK
The assay can be described thus: flow cytometry, blocking of hLAG-3-mFc (10 µg/ml) binding to MHC class II on Daudi cells.

Assay [7] addresses T5, recombinant Macaca fascicularis LAG-3-6*His tag fusion protein (Macaca fascicularis).
T5 construct: Bought protein; also called Macaca fascicularis LAG-3 antigen
The assay can be described thus: ELISA, antibody coated at 1 µg/ml, Macaca fascicularis LAG-3-6*His titrated, anti-His HRP.

For assay [8], the target named is T3, human LAG-3-6*His tag recombinant …. The assay can be described thus: ELISA, antibody coated at 1 µg/ml, human LAG-3-6*His titrated, anti-His HRP; range of three experiments.
Assay [9] has the same target. The assay can be described thus: ELISA, antibody coated at 1 µg/ml, human LAG-3-6*His titrated (the concentration axis is the antigen), anti-His-HRP detection, single experiment.

One molecule from patent publication US20210147536A1 (MAB VENTURE BIOPHARM, published 2021) can be followed below.

B1: positive control antibody 25F7 (antibody, human IgG4 S228P, kappa)
heavy: QVQLQQWGAGLLKPSETLSLTCAVYGGSFSDYYWNWIRQPPGKGLEWIGEINHNGNTNSNPSLKSRVTLSLDTSKNQFSLKLRSVTAADTAVYYCAFGYSDYEYNWFDPWGQGTLVTVSSASTKGPSVFPLAPCSRSTSESTAALGCLVKDYFPEPVTVSWNSGALTSGVHTFPAVLQSSGLYSLSSVVTVPSSSLGTKTYTCNVDHKPSNTKVDKRV[human IgG4 Fc with S228P (EU numbers) omitted]
light: EIVLTQSPATLSLSPGERATLSCRASQSISSYLAWYQQKPGQAPRLLIYDASNRATGIPARFSGSGSGTDFTLTISSLEPEDFAVYYCQQRSNWPLTFGQGTNLEIKRTVAAPSVFIFPPSDEQLKSGTASVVCLLNNFYPREAKVQWKVDNALQSGNSQESVTEQDSKDSTYSLSSTLTLSKADYEKHKVYACEVTHQGLSSPVTKSFNRGEC
notes: made in an IgG4 kappa vector in ExpiCHO-S cells; also called BMS-25F7; BMS control monoclonal antibody
Usually EC50 stands for the midpoint of the concentration-response curve. A word on the Kd: it is a measure of binding affinity in units of concentration. What is called koff is a measure of how fast the partners let go of each other. The kon is the second-order rate constant of association. A word on the IC50: it is the concentration that inhibits the measured activity by half. For orientation: EC50 (read off the curve) means the concentration giving half of the maximal effect. As for B1, in assay [1], the “EC50 of NFAT reporter gene induction (bio-glo luciferase), LAG3/NFAT Reporter-Jurkat + Raji cells + superantigen” value stood at 0.64 µg/mL. Also, the EC50 in [2] was 3.2 µg/mL; in assay [3] it was 0.039 µg/mL; in assay [5], 0.0168 µg/mL; in assay [7] it was 7 µg/mL; in [8], 0.08 to 0.14 µg/mL. Further, in [4], the Kd was found to be 0.356 nM. For the same molecule, the off-rate (koff) in assay [4] stood at 0.00171 s⁻¹. Also, the on-rate constant (kon) in [4] is 4.81e+06 M⁻¹ s⁻¹. Moreover, the IC50 in assay [6] came to 3.3 µg/mL. Besides, the “EC50 (read off the curve)” value in assay [9] was about 0.09 µg/mL.
